Test results from a collection of fitness landscapes (doi:10.1126/science.1257360).
The other results are listed elsewhere or left out.

B1: PhoQ; a variant is named by its letters at X, in order, P23837 (parent)
chain: MKKLLRLFFPLSLRVRFLLATAAVVLVLSLAYGMVALIGYSVSFDKTTFRLLRGESNLFYTLAKWENNKLHVELPENIDKQSPTMTLIYDENGQLLWAQRDVPWLMKMIQPDWLKSNGFHEIEADVNDTSLLLSGDHSIQQQLQEVREDDDDAEMTHSVAVNVYPATSRMPKLTIVVVDTIPVELKSSYMVWSWFIYVLSANLLLVIPLLWVAAWWSLRPIEALAKEVRELEEHNRELLNPATTRELTSLVRNLNRLLKSERERYDKYRTTLTDLTHSLKTPLXXLQXXLRSLRSEKMSVSDAEPVMLEQISRISQQIGYYLHRASMRGGTLLSRELHPVAPLLDNLTSALNKVYQRKGVNISLDISPEISFVGEQNDFVEVMGNVLDNACKYCLEFVEISARQTDEHLYIVVEDDGPGIPLSKREVIFDRGQRVDTLRPGQGVGLAVAREITEQYEGKIVAGESMLGGARMEVIFGRQHSAPKDE

Variants of: B1
Test: enrichment ratio after two sorts for PhoP signalling (ratio (wild type AVST 3.29)); higher = more functional
Conditions: with PhoP (E. coli)
MKGD showed an enrichment ratio of at most 0.25. KFRL was tested, and the enrichment ratio was at most 0.25. In the case of QQND, the enrichment ratio is reported as at most 0.25. With PYCW the enrichment ratio was at most 0.25. For LNGV, the enrichment ratio was at most 0.25. With WEWA the enrichment ratio was at most 0.25. With MGFN the enrichment ratio was 11.6. PCVF was tested, and the enrichment ratio was at most 0.25. LTNF showed an enrichment ratio of at most 0.25. Work on LPWM yielded an enrichment ratio of at most 0.25. RSYQ was tested, and the enrichment ratio was at most 0.25. For PNSV, the enrichment ratio was at most 0.25. For KSMH, the enrichment ratio was at most 0.25. THVG showed an enrichment ratio of at most 0.25. In the case of PYWY, the enrichment ratio is reported as at most 0.25. Variant WAGM has an enrichment ratio of at most 0.25. Work on EFLT yielded an enrichment ratio of at most 0.25. PKIE gave an enrichment ratio of at most 0.25. With DENL the enrichment ratio was at most 0.25. VIEH was tested, and the enrichment ratio was at most 0.25. Work on TWVT yielded an enrichment ratio of at most 0.25. Work on IYLT yielded an enrichment ratio of at most 0.25. IAHV gave an enrichment ratio of at most 0.25. With HNQG the enrichment ratio was at most 0.25. TRCL was tested, and the enrichment ratio was 7.14. RHGM gave an enrichment ratio of at most 0.25. NVCM gave an enrichment ratio of at most 0.25. For RPYI, the enrichment ratio was at most 0.25. Work on NHYY yielded an enrichment ratio of at most 0.25. AKIC showed an enrichment ratio of at most 0.25. Variant MFPM has an enrichment ratio of at most 0.25. For YIQG, the enrichment ratio was at most 0.25. HKSA gave an enrichment ratio of at most 0.25. Variant EEFL has an enrichment ratio of at most 0.25. In the case of REAR, the enrichment ratio is reported as at most 0.25. With RESC the enrichment ratio was at most 0.25. HSQD showed an enrichment ratio of at most 0.25. In the case of HWRW, the enrichment ratio is reported as at most 0.25. AVTT gave an enrichment ratio of at most 0.25. In the case of TKQE, the enrichment ratio is reported as 16.5. DHWF showed an enrichment ratio of at most 0.25. SRHE gave an enrichment ratio of at most 0.25. With PDGP the enrichment ratio was at most 0.25. Work on WRWS yielded an enrichment ratio of at most 0.25. FFEK was tested, and the enrichment ratio was at most 0.25. VQES gave an enrichment ratio of at most 0.25. Variant FQWM has an enrichment ratio of at most 0.25. In the case of NPKE, the enrichment ratio is reported as at most 0.25. Work on TMEY yielded an enrichment ratio of at most 0.25. In the case of QGVW, the enrichment ratio is reported as at most 0.25. Work on FHFM yielded an enrichment ratio of at most 0.25. With LSPI the enrichment ratio was at most 0.25. Variant GWHD has an enrichment ratio of at most 0.25. In the case of HHRS, the enrichment ratio is reported as at most 0.25. For WLKL, the enrichment ratio was at most 0.25. Work on NDYW yielded an enrichment ratio of at most 0.25. QRYD was tested, and the enrichment ratio was at most 0.25. SCIT was tested, and the enrichment ratio was 1.21. In the case of MCNK, the enrichment ratio is reported as at most 0.25. Variant IFYV has an enrichment ratio of at most 0.25. For EPIR, the enrichment ratio was at most 0.25. Work on EICF yielded an enrichment ratio of at most 0.25. Work on FLCL yielded an enrichment ratio of 2.02. FYSE was tested, and the enrichment ratio was 1.54. Work on WGHQ yielded an enrichment ratio of at most 0.25. In the case of DMWS, the enrichment ratio is reported as at most 0.25. With FKNV the enrichment ratio was at most 0.25. Variant KMAQ has an enrichment ratio of at most 0.25. WDLY was tested, and the enrichment ratio was at most 0.25. In the case of LAHH, the enrichment ratio is reported as at most 0.25. FGHL was tested, and the enrichment ratio was at most 0.25. DRAK was tested, and the enrichment ratio was at most 0.25. Variant QHSV has an enrichment ratio of at most 0.25. Work on RVDT yielded an enrichment ratio of at most 0.25. Work on GFDF yielded an enrichment ratio of at most 0.25. For GNRK, the enrichment ratio was at most 0.25. IVMW gave an enrichment ratio of at most 0.25. Variant KAIQ has an enrichment ratio of at most 0.25. For NYMK, the enrichment ratio was at most 0.25. In the case of VPGA, the enrichment ratio is reported as at most 0.25. In the case of QTNK, the enrichment ratio is reported as at most 0.25. NRNH showed an enrichment ratio of at most 0.25. ILIE was tested, and the enrichment ratio was at most 0.25. VPIQ showed an enrichment ratio of at most 0.25. Work on HRWE yielded an enrichment ratio of at most 0.25. In the case of AERM, the enrichment ratio is reported as at most 0.25. Variant HFMF has an enrichment ratio of at most 0.25. In the case of PIAM, the enrichment ratio is reported as at most 0.25. RPRQ showed an enrichment ratio of at most 0.25. In the case of TNEA, the enrichment ratio is reported as at most 0.25. Variant HWAG has an enrichment ratio of at most 0.25. In the case of YRAS, the enrichment ratio is reported as at most 0.25. GWSE gave an enrichment ratio of at most 0.25. GGGH showed an enrichment ratio of at most 0.25. Variant WNPC has an enrichment ratio of at most 0.25. With DNCV the enrichment ratio was at most 0.25. Variant LSCI has an enrichment ratio of 0.282. DFCN was tested, and the enrichment ratio was at most 0.25. FKSV gave an enrichment ratio of at most 0.25. In the case of NNYQ, the enrichment ratio is reported as at most 0.25. With LDHK the enrichment ratio was at most 0.25. With LATM the enrichment ratio was at most 0.25. PESY gave an enrichment ratio of at most 0.25. SRAS was tested, and the enrichment ratio was at most 0.25. NDTL showed an enrichment ratio of at most 0.25. HWGI was tested, and the enrichment ratio was at most 0.25. Variant RRDR has an enrichment ratio of at most 0.25. In the case of YAGD, the enrichment ratio is reported as at most 0.25. TKLP showed an enrichment ratio of 0.369. Variant SSYG has an enrichment ratio of at most 0.25. DTDG was tested, and the enrichment ratio was at most 0.25. NPQC showed an enrichment ratio of at most 0.25. For HQPN, the enrichment ratio was at most 0.25. For QQIR, the enrichment ratio was at most 0.25. For MVIQ, the enrichment ratio was at most 0.25. Variant PEKL has an enrichment ratio of at most 0.25. With EDFF the enrichment ratio was at most 0.25. With TFAP the enrichment ratio was at most 0.25. SVAR was tested, and the enrichment ratio was 6.23. LLPK showed an enrichment ratio of at most 0.25. Variant PFYN has an enrichment ratio of at most 0.25. With TQWR the enrichment ratio was at most 0.25. Work on VGMC yielded an enrichment ratio of 1.02. For TPFY, the enrichment ratio was at most 0.25. Variant TNGY has an enrichment ratio of 4.96. For FQSW, the enrichment ratio was 0.59. Work on FFEM yielded an enrichment ratio of at most 0.25. VVWM was tested, and the enrichment ratio was at most 0.25. EPQR gave an enrichment ratio of at most 0.25. QANR was tested, and the enrichment ratio was at most 0.25. For KAFG, the enrichment ratio was at most 0.25. Variant PPGL has an enrichment ratio of at most 0.25. In the case of THIL, the enrichment ratio is reported as at most 0.25. Variant SPTF has an enrichment ratio of at most 0.25. MRYI was tested, and the enrichment ratio was at most 0.25. Variant AYPR has an enrichment ratio of at most 0.25. PATA gave an enrichment ratio of at most 0.25. For NLQM, the enrichment ratio was at most 0.25. YVHG gave an enrichment ratio of at most 0.25. SNTL gave an enrichment ratio of 14.6. Work on WHLK yielded an enrichment ratio of at most 0.25. DQDT gave an enrichment ratio of at most 0.25. In the case of MQPH, the enrichment ratio is reported as at most 0.25. PGWQ gave an enrichment ratio of at most 0.25. Variant WPPV has an enrichment ratio of at most 0.25. Variant LRYR has an enrichment ratio of at most 0.25. In the case of ETDR, the enrichment ratio is reported as at most 0.25. In the case of WTRY, the enrichment ratio is reported as at most 0.25. IHYN was tested, and the enrichment ratio was at most 0.25. In the case of YDDR, the enrichment ratio is reported as at most 0.25. LIEP was tested, and the enrichment ratio was at most 0.25. WWTL was tested, and the enrichment ratio was at most 0.25. HRPK showed an enrichment ratio of at most 0.25. IVNR gave an enrichment ratio of at most 0.25. In the case of KSKD, the enrichment ratio is reported as at most 0.25. In the case of NRCK, the enrichment ratio is reported as at most 0.25. For HSPP, the enrichment ratio was at most 0.25. KNGL showed an enrichment ratio of at most 0.25. Work on FCCW yielded an enrichment ratio of at most 0.25. Variant RPTR has an enrichment ratio of at most 0.25. YEKY was tested, and the enrichment ratio was at most 0.25. Variant TSDE has an enrichment ratio of at most 0.25. Variant EGMY has an enrichment ratio of at most 0.25. For NSGE, the enrichment ratio was at most 0.25. RVKH was tested, and the enrichment ratio was at most 0.25. Work on TEEQ yielded an enrichment ratio of at most 0.25. WCIF gave an enrichment ratio of at most 0.25. EFQS was tested, and the enrichment ratio was at most 0.25. In the case of SMTW, the enrichment ratio is reported as at most 0.25. Variant QFWF has an enrichment ratio of at most 0.25. DVNG gave an enrichment ratio of at most 0.25. WWKN gave an enrichment ratio of at most 0.25. Work on SDSV yielded an enrichment ratio of 5.55. MLPQ was tested, and the enrichment ratio was at most 0.25. GSML showed an enrichment ratio of 9.91. Variant FFHS has an enrichment ratio of at most 0.25. Variant VGEP has an enrichment ratio of at most 0.25. In the case of HMMA, the enrichment ratio is reported as at most 0.25. FQEL showed an enrichment ratio of at most 0.25. For HIYW, the enrichment ratio was at most 0.25. In the case of QKCK, the enrichment ratio is reported as at most 0.25. In the case of SYEC, the enrichment ratio is reported as at most 0.25. GTIR showed an enrichment ratio of at most 0.25. Work on GWYV yielded an enrichment ratio of at most 0.25. In the case of FSMC, the enrichment ratio is reported as 16.1. For MDHF, the enrichment ratio was at most 0.25. With WIEP the enrichment ratio was at most 0.25. With VTVG the enrichment ratio was at most 0.25. PWWM showed an enrichment ratio of at most 0.25. For PHNY, the enrichment ratio was at most 0.25. Variant SECK has an enrichment ratio of at most 0.25. MCTE gave an enrichment ratio of at most 0.25. In the case of RRSG, the enrichment ratio is reported as at most 0.25. In the case of MRNQ, the enrichment ratio is reported as at most 0.25. For RIHK, the enrichment ratio was at most 0.25.
